{
  "source": "PubChem BioAssay AID686979",
  "about": "(National Center for Advancing Translational Sciences (NCATS), 2013)",
  "note": "Where “and” joins values, the source holds several entries; their conditions need not be identical. Equal values may be shown once. The campaign covered roughly 420,000 compounds. About 50,000 (12%) were called active. Inconclusive results, whose numbers are uncertain, are shown with a selection of clear calls. Calls come from the whole dose curve; as a rule, active = well fitted inhibition curve with a large enough effect; inconclusive = small, poorly fitted or top-dose-only effect; inactive = flat fitted curve, though single readings scatter. Potencies of inconclusive entries are left out as doubtful fits.",
  "data": [
    {"assay": "qHTS for Inhibitors of human tyrosyl-DNA phosphodiesterase 1 (TDP1): qHTS in cells in presence of CPT; note: nearly all actives have a fitted effect of over 55% in size; note: potency is the fitted concentration of half-maximal effect; tags give direction and shape of the fitted curve; for activity change, negative = growth inhibition: % is set by controls: 0 for no effect and ±100 for the full control effect", "settings": "chicken DT40 Tdp1-/-;hTDP1 cells + 20 nM CPT, ATP luminescence, 48 h; activity change, negative = growth inhibition: at 46.2 µM (top of the series) unless noted", "in_short": "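Chicken DT40 Tdp1-/- cells complemented with human TDP1, 400 cells/well, exposed to compounds plus 20 nM camptothecin for at least 48 h at 37 C; viability read as ATP content by CellTiter-Glo luminescence.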", "values": [
      {"molecule": "CCCC(=O)N1CCC1(C)C(=O)Nc1ccccc1C(C)(C)C", "note": "(stereo not drawn)", "Potency": "inactive"},
      {"molecule": "CCn1c(CC(=O)Nc2ccc(OC)cc2)nnc1SCC(=O)N1CCOCC1", "Potency": "inactive"},
      {"molecule": "Cc1cccc(CCNC(=O)CCCOc2cc(=O)n(C)c3ccccc23)c1", "Potency": "inconclusive [inhibitor, single point]"},
      {"molecule": "CC(OC(=O)Cn1cnc2c1c(=O)n(C)c(=O)n2C)C(=O)N(C)c1ccccc1", "note": "(stereo not drawn)", "Potency": "inconclusive [inhibitor, partial curve]"},
      {"molecule": "O=C1Nc2ccccc2/C1=N\\c1sc2c(c1C(=O)Nc1ccccc1)CCCC2", "Potency": "inactive"},
      {"molecule": "COCCNC(=O)C(c1ccc(C)cc1)N(C(=O)CCC(=O)Nc1ccccn1)C1CCCCC1", "note": "(stereo not drawn)", "Potency": "inactive"},
      {"molecule": "CC(C)OC(=O)CSc1nc2c(c(C3CC=CCC3)c1C#N)CCC2", "note": "(stereo not drawn)", "Potency": "inconclusive [inhibitor, single point]"},
      {"molecule": "O=C(NCc1ccccc1Cl)c1ccc(NC(=O)N2CCSc3ccccc32)cc1", "Potency": "inconclusive [inhibitor, single point]"},
      {"molecule": "COc1ccc(S(=O)(=O)N(CC(=O)Nc2ccc3c(c2)OCO3)c2ccc(C)cc2)cc1", "Potency": "inconclusive [inhibitor, single point]"},
      {"molecule": "COc1ccc(C(=O)N2CCN(c3ccc(NC(=O)c4cccs4)cc3)CC2)cc1", "Potency": "inconclusive [inhibitor, single point]"},
      {"molecule": "CC(=O)Nc1ccc2nc(NC(=O)c3ccc([N+](=O)[O-])o3)sc2c1", "Potency": "inconclusive [inhibitor, single point]"},
      {"molecule": "O=C(CCCc1ccccc1)Nc1ccnn1C1CCN(Cc2ccccc2)CC1", "Potency": "inconclusive [inhibitor, full curve, poor fit]"},
      {"molecule": "COC(=O)[C@@]1(Cc2ccc(OC)cc2)[C@@H]2C(=CC(=O)[C@H]2CC(=O)C(=O)N2CCCC2)CN1C(=O)c1ccccc1", "Potency": "inconclusive [inhibitor, single point]"},
      {"molecule": "O=C(c1cc2c(s1)-c1ccccc1S(=O)(=O)C2)N1CCN(Cc2ccccc2)CC1", "Potency": "active: 18.4 µM"},
      {"molecule": "COc1ccc(C[C@H]2COC(=O)[C@@H]2Cc2ccc(OC3OC(CO)C(O)C(O)C3O)c(OC)c2)cc1OC", "note": "(stereo partly drawn)", "Potency": "inconclusive [inhibitor, single point]"},
      {"molecule": "O=C(CSc1nc2ccccc2o1)Nc1ccc(Cl)cc1", "Potency": "inactive"},
      {"molecule": "O=C(NCCCc1ccccc1)c1nn(-c2ccccc2)nc1CO", "Potency": "inconclusive [inhibitor, single point]"},
      {"molecule": "O=c1cc(CSc2ccc(S(=O)(=O)N3CCCCC3)cn2)nc2sccn12", "Potency": "inactive"},
      {"molecule": "O=C(CSc1nc2ccc(F)cc2c(=O)n1-c1ccccc1)Nc1ccc2c(c1)CCC2", "Potency": "inconclusive [inhibitor, single point]"},
      {"molecule": "Cc1c(Cl)cccc1NC(=O)c1ccc(OCC(=O)NCc2ccccc2)cc1", "Potency": "inconclusive [inhibitor, partial curve, poor fit]"},
      {"molecule": "O=C(Cn1cc(S(=O)(=O)c2ccccc2)c(=O)c2cc3c(cc21)OCO3)Nc1ccccc1", "Potency": "inactive"},
      {"molecule": "Cn1cc(S(=O)(=O)N2CCCCC2)cc1C(=O)Nc1ccc(OC(F)(F)F)cc1", "Potency": "inactive"},
      {"molecule": "O=C(Nc1cccc([N+](=O)[O-])c1)c1ccc2c(c1)OCO2", "Potency": "inconclusive [inhibitor, single point]"},
      {"molecule": "O=C1N/C(=C\\c2ccccc2)C(O)=C1C=NCc1ccccc1", "activity change, negative = growth inhibition": "inconclusive: -22.3% [inhibitor]"},
      {"molecule": "C/C(=N\\Nc1nc2ccccc2[nH]1)c1ccc(N2CCOCC2)cc1", "Potency": "inconclusive [inhibitor, single point]"},
      {"molecule": "CCOc1ccc(C(=O)N[C@H](C(=O)Nc2cccc(S(=O)(=O)N3CCOCC3)c2)C(C)C)cc1", "Potency": "inconclusive [inhibitor, single point]"},
      {"molecule": "Cc1nc2nc(SCC(=O)NC3CCC(C)CC3)nn2c(C)c1Cc1ccccc1Cl", "note": "(stereo not drawn)", "Potency": "inconclusive [inhibitor, single point]"},
      {"molecule": "CCC(CC)C(=O)Nc1cc(OC)c(OC)cc1C(=O)O", "Potency": "active: 16.4 µM"},
      {"molecule": "CC(=O)C[C@@H](O)CC(=O)[C@@H]1OC(=O)CCCCCCc2ccccc21", "Potency": "inconclusive [inhibitor, partial curve, poor fit]"},
      {"molecule": "CCOc1cc(/C=C2\\C(=O)ON=C2C)ccc1OCc1ccccc1", "Potency": "inconclusive [inhibitor, single point]"},
      {"molecule": "CCc1ccc2occ(CC(=O)Nc3sc4c(c3C(=O)NCCOC)CCCC4)c2c1", "Potency": "inconclusive [inhibitor, single point]"},
      {"molecule": "O=C(C1CCN(S(=O)(=O)c2ccc(Cl)cc2)CC1)N1CCOCC1", "Potency": "inactive"},
      {"molecule": "Cc1ccc(S(=O)(=O)C(CNC(=O)c2ccc(C(F)(F)F)cc2)c2ccco2)cc1", "note": "(stereo not drawn)", "Potency": "inconclusive [inhibitor, partial curve]"},
      {"molecule": "CCCCCCCCN1C(=O)[C@H](CC(=O)NCCCOCCCC)C[C@@]2(C(=O)OC)CC(C)(C)CC=C12", "Potency": "inconclusive [inhibitor, single point]"},
      {"molecule": "CN(C)CCCNC(=O)C[C@H]1C[C@H](C(=O)N2CCCCC2)[C@@]2(C)c3[nH]c4ccc(Cl)cc4c3CCN2C1=O", "Potency": "inconclusive [inhibitor, single point]"},
      {"molecule": "Cc1cccc(-n2ccc(=O)c(C(=O)Nc3ccc(S(=O)(=O)N4CCOCC4)cc3)n2)c1", "Potency": "inconclusive [inhibitor, single point]"},
      {"molecule": "O=C(CN1CCCC1)OCCCc1ccccc1", "Potency": "inactive"},
      {"molecule": "COc1ccccc1CCC(=O)N1CCN(S(=O)(=O)c2cc(C(F)(F)F)ccc2Cl)CC1", "Potency": "inconclusive [inhibitor, single point]"},
      {"molecule": "CCn1cc2nc(SCc3cccc(C)c3)n(CCc3ccccc3)c(=O)c2n1", "Potency": "active: 23.1 µM"},
      {"molecule": "O=C(CCc1nnc(COc2ccccc2)o1)NCc1ccc(Cl)s1", "Potency": "inactive"},
      {"molecule": "CCOC(=O)c1cc(NC(=O)Nc2nc3ccccc3s2)c(C)nc1C", "Potency": "inconclusive [inhibitor, single point]"},
      {"molecule": "Cc1ccc(-n2cc(CNCC3CC(=O)N(C4CC4)C3)c(-c3cccc(C)c3)n2)cc1", "note": "(stereo not drawn)", "Potency": "active: 11.6 µM"},
      {"molecule": "COc1ccc(C(=O)COC(=O)c2nc3nccc(C)n3n2)cc1F", "Potency": "inactive"},
      {"molecule": "O=C1NN(c2ccccc2)C(=O)/C1=C/c1coc2ccccc2c1=O", "Potency": "inconclusive [inhibitor, single point]"},
      {"molecule": "CCOc1ccc(S(=O)(=O)NCc2ccncc2)cc1NC(=O)c1ccccc1", "Potency": "active: 3.66 µM"},
      {"molecule": "O=C(Cn1nnc(-c2ccccc2NC(=O)c2ccccc2F)n1)NC1CCCC1", "Potency": "inactive"},
      {"molecule": "CCOC(=O)c1ccc(NC(=O)CCC(=O)N2CCSc3ccccc32)cc1", "Potency": "active: 23.1 µM"},
      {"molecule": "Cc1ccc(S(=O)(=O)n2nc(-c3ccco3)nc2NCc2ccc(N(C)C)cc2)cc1", "Potency": "inconclusive [inhibitor, single point]"},
      {"molecule": "COc1ccc(OC)c(C(=O)N(Cc2cc3cccc(C)c3nc2N2CCC(O)CC2)C2CC2)c1", "activity change, negative = growth inhibition": "inactive: 3.89% [at 9.04 µM]"},
      {"molecule": "COc1ccc(NC(=O)Nc2cccc3ccccc23)c(OC)c1", "Potency": "inconclusive [inhibitor, single point]"},
      {"molecule": "CC(OC(=O)c1ccc(NS(=O)(=O)c2ccc3[nH]c(=O)[nH]c3c2)cc1)C(N)=O", "note": "(stereo not drawn)", "Potency": "inactive"},
      {"molecule": "Cn1ccnc1C1CCCCN1C(=O)c1cc(COc2ccc(F)cc2Cl)on1", "note": "(stereo not drawn)", "Potency": "inconclusive [inhibitor, single point]"},
      {"molecule": "CC(/C=C/C=C/c1ccccc1)=N/NC(=O)C(O)c1ccccc1", "note": "(stereo not drawn)", "Potency": "inactive"},
      {"molecule": "CCOC(=O)C1CCCN(C(=O)c2ccc3c(c2)N(Cc2ccccc2F)C(=O)c2ccccc2S3=O)C1", "note": "(stereo not drawn)", "Potency": "inconclusive [inhibitor, single point]"},
      {"molecule": "NC(=O)c1ccsc1NC(=O)COC(=O)Cc1ccsc1", "activity change, negative = growth inhibition": "inconclusive: -33.3% [inhibitor]"},
      {"molecule": "CC(=O)Nc1c(-c2ccccc2)nc2ncccn12", "Potency": "inactive"},
      {"molecule": "NS(=O)(=O)c1ccc(NC(=O)CSc2nc(Nc3ccccc3)nc(N3CCOCC3)n2)cc1", "Potency": "active: 20.6 µM"},
      {"molecule": "c1cnc2c(c1)ccc1cccnc12", "Potency": "active: 4.11 µM and active: 5.01 µM and active: 3.66 µM"},
      {"molecule": "CCCN(C(=O)Cn1ncc2c([nH]c3ccccc32)c1=O)c1ccc(F)cc1", "Potency": "inconclusive [inhibitor, single point]"},
      {"molecule": "CCn1c(=N)n(CC(=O)c2ccc(OC)c(OC)c2)c2ccccc21", "Potency": "inconclusive [inhibitor, partial curve]"},
      {"molecule": "C=CCn1c(N)cc(=O)nc1SCC(=O)Nc1ccc(C(=O)OC)cc1", "Potency": "inactive"},
      {"molecule": "Cc1ccc(CNC(=O)CCc2nnc(Cc3ccc(-c4ccccc4)cc3)o2)o1", "activity change, negative = growth inhibition": "inconclusive: -37.5% [inhibitor]"},
      {"molecule": "CCCCCN(C(=O)CCC(=O)OC(C)C(=O)Nc1ccccc1C)c1c(N)n(CCCC)c(=O)[nH]c1=O", "note": "(stereo not drawn)", "Potency": "inactive"},
      {"molecule": "CC(C)N(C(=O)[C@H]1CC(CC(=O)NCC23CC4CC(CC(C4)C2)C3)C(=O)N2CCc3c([nH]c4ccccc34)[C@]12C)C(C)C", "note": "(stereo partly drawn)", "Potency": "active: 13 µM"},
      {"molecule": "COc1ccc2[nH]cc(CCNC(=O)c3ccc([N+](=O)[O-])cc3)c2c1", "Potency": "inconclusive [inhibitor, single point]"},
      {"molecule": "OC[C@@H]1CN(Cc2ccco2)C[C@H](n2cnc3c(Nc4ccccc4)ncnc32)O1", "Potency": "inconclusive [inhibitor, partial curve]"},
      {"molecule": "CCO[C@@H]1OC(C(=O)N2CCCCCCC2)=C[C@H](C2CCCCC2)[C@H]1CCCO", "Potency": "active: 13 µM"},
      {"molecule": "CC[n+]1ccccc1/C=C/c1ccc(N(C)C)cc1", "Potency": "active: 1.03 µM"}
    ]}
  ]
}
